Source: the supplement of paper PMC9446081
In all, about 39,000 compounds went through this assay and about 220 (0.56%) showed activity. This is one part of the list.
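Also: static incubation at 37 °C against the wild-type strain, values averaged over two biological replicates.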

Each molecule was assayed on Escherichia coli K-12 BW25113 (assay: relative growth (OD600 normalised to plate interquartile mean) (fraction); higher = less growth inhibition, active = 0.2 or less). Settings: 50 µM; LB; incubation time: overnight (16-24 h).
With `NCc1nncn1-c1ccc(F)cc1` the relative growth was inactive: 1. With `COc1ccc(NC(=O)Nc2ccc3c(c2)C(=O)N([C@H](C)CO)C[C@@H](C)[C@@H](CN(C)C(=O)C2CCCCC2)OCCCC[C@@H](C)O3)cc1` the relative growth was inactive: 0.978. In the case of `NC1CCC(N2CCC3(CC2)CC(=O)N(Cc2cc(F)cc(F)c2)C3)CC1` (configuration not stated), the relative growth is reported as inactive: 1.01. In the case of `C[C@H]1CCCCO[C@H](CN(C)C(=O)NC2CCCCC2)[C@@H](C)CN([C@@H](C)CO)C(=O)c2cc(NC(=O)c3ccncc3)ccc2O1`, the relative growth is reported as inactive: 0.971. For `S=C(c1cccs1)N1CCCC1`, the relative growth was inactive: 0.987. `CC(/C=C/C(=O)NO)=C\c1ccccc1OCc1cn(CCNC(=O)[C@@H](NS(=O)(=O)c2ccc(C)cc2)C(C)C)nn1` was tested, and the relative growth was inactive: 0.996. In the case of `O=C1CCC(N2C(=O)c3ccccc3C2=O)C(=O)N1` (configuration not stated), the relative growth is reported as inactive: 1.09. With `Cc1ccc(S(=O)(=O)N2CCOCC2)cc1NC(=O)CN1C(=O)CN(C)C1=O` the relative growth was inactive: 1.02. In the case of `COc1ccc2c3c(n(c2c1)C)[C@H](CO)N(CC1CC1)C[C@]13CCN(CC1)S(=O)(=O)c1cn(cn1)C`, the relative growth is reported as inactive: 1.03. `CN(C)CCCC[C@@H]1NC(=O)[C@H]2C[C@@H](C(=O)NCCCCCCNC(=O)CS)[C@@H](c3ccc(O)cc3)N2C1=O` was tested, and the relative growth was inactive: 0.963. In the case of `C[C@H](CO)N1C[C@H](C)[C@@H](CN(C)C(=O)Nc2cccc(F)c2)Oc2ncc(Br)cc2C1=O`, the relative growth is reported as inactive: 0.958. `C[C@H](N)C(=O)N[C@@H](C)P(=O)(O)O` was tested, and the relative growth was inactive: 0.973. For `Cc1noc(C)c1NC(=O)N(C)C[C@@H]1Oc2c(NC(=O)C3CCOCC3)cccc2C(=O)N([C@@H](C)CO)C[C@@H]1C`, the relative growth was inactive: 0.985. With `C[C@@H]1CCCCO[C@@H](CN(C)C(=O)c2ccccc2)[C@H](C)CN([C@H](C)CO)C(=O)c2cc(NS(=O)(=O)c3cccs3)ccc2O1` the relative growth was inactive: 1.02. `Cc1noc(C)c1S(=O)(=O)Nc1ccc2c(c1)C(=O)N([C@H](C)CO)C[C@@H](C)[C@@H](CN(C)C)OCCCC[C@H](C)O2` was tested, and the relative growth was inactive: 1. With `Cc1noc(C)c1S(=O)(=O)N(C)C[C@@H]1Oc2ccc(NC(=O)Cn3cnnn3)cc2CC(=O)N([C@@H](C)CO)C[C@H]1C` the relative growth was inactive: 0.968. For `C[C@@H]1CCCCO[C@H](CN(C)Cc2ccc(C(F)(F)F)cc2)[C@@H](C)CN([C@@H](C)CO)C(=O)c2cc(NS(=O)(=O)c3ccccc3)ccc2O1`, the relative growth was inactive: 0.985. `CN(C)CCCNC(=O)C[C@@H]1CC[C@@H]2[C@H](COC[C@@H](O)CN2S(=O)(=O)c2ccccc2)O1` was tested, and the relative growth was inactive: 0.995. `C[C@@H]1CN([C@@H](C)CO)C(=O)c2cc(NS(=O)(=O)c3cccs3)ccc2O[C@H]1CN(C)CC1CC1` was tested, and the relative growth was inactive: 0.974. For `C[C@H]1CN([C@@H](C)CO)C(=O)CCCn2cc(nn2)CO[C@@H]1CN(C)C(=O)Nc1ccc(N2CCN(C)CC2)cc1`, the relative growth was inactive: 0.979. In the case of `C[C@@H]1CN([C@@H](C)CO)C(=O)c2cc(NC(=O)Nc3ccc(F)cc3)ccc2O[C@@H](C)CCCCO[C@H]1CN(C)S(=O)(=O)c1cccs1`, the relative growth is reported as inactive: 1.03. In the case of `Cc1noc(C)c1S(=O)(=O)Nc1ccc2c(c1)C(=O)N([C@@H](C)CO)C[C@@H](C)[C@H](CN(C)C(=O)NC(C)C)O2`, the relative growth is reported as inactive: 1.01. In the case of `C[C@@H]1CCCCO[C@@H](CN(C)Cc2ccc(C(F)(F)F)cc2)[C@H](C)CN([C@H](C)CO)C(=O)c2cc(NC(=O)Nc3cccc4ccccc34)ccc2O1`, the relative growth is reported as inactive: 1.03. With `C[C@H]1CN([C@@H](C)CO)C(=O)c2cc(C#CC3CCCCC3)cnc2O[C@@H]1CN(C)C(=O)c1ccncc1` the relative growth was inactive: 1.02. For `COc1ccc(S(=O)(=O)Nc2ccc3c(c2)C(=O)N([C@@H](C)CO)C[C@@H](C)[C@H](CN(C)Cc2ccc(-c4ccccc4)cc2)O3)cc1`, the relative growth was inactive: 0.995. `C[C@@H]1CN([C@H](C)CO)C(=O)c2cccc(NC(=O)Nc3ccc(C(F)(F)F)cc3)c2O[C@@H]1CN(C)S(C)(=O)=O` was tested, and the relative growth was inactive: 0.864. With `C[C@H]1CN([C@@H](C)CO)C(=O)c2cc(NC(=O)NC3CCCCC3)ccc2O[C@@H]1CN(C)Cc1ccc(C(F)(F)F)cc1` the relative growth was inactive: 0.99. In the case of `C[C@H]1CCCCO[C@@H](CN(C)C(=O)Nc2ccc(C(F)(F)F)cc2)[C@@H](C)CN([C@@H](C)CO)C(=O)c2cc(NS(C)(=O)=O)ccc2O1`, the relative growth is reported as inactive: 1.01. In the case of `C[C@@H]1CN([C@@H](C)CO)C(=O)c2cc(NC(=O)NC3CCCCC3)ccc2O[C@@H](C)CCCCO[C@H]1CN(C)C(=O)Cc1ccccc1`, the relative growth is reported as inactive: 0.884. In the case of `CCCNC(=O)Nc1ccc2c(c1)C(=O)N(C)C[C@@H](OC)[C@@H](C)CN(C(=O)C1CCOCC1)[C@@H](C)CO2`, the relative growth is reported as inactive: 0.994. In the case of `[N-]=[N+]=Nc1ccccc1[C@@H]1OC(c2ccc(OCCCO)cc2)=N[C@]1(CCS(=O)(=O)c1ccccc1)C(=O)NC[C@@H](O)CO`, the relative growth is reported as inactive: 1. `C[C@@H]1CCCCO[C@@H](CN(C)Cc2ccncc2)[C@H](C)CN([C@@H](C)CO)C(=O)c2cc(NC(=O)Nc3ccc(F)cc3)ccc2O1` was tested, and the relative growth was inactive: 1.01. `N[C@H]1CCc2nc3ccccc3c(=O)n2[C@@H]1c1ccsc1` was tested, and the relative growth was inactive: 0.989. `C=CCCCCCCCCC(=O)O` was tested, and the relative growth was inactive: 0.954. `O=C1[C@H]2C=NN[C@@H]2C(=O)N1Cc1ccccc1` was tested, and the relative growth was inactive: 0.97. In the case of `C[C@@H]1CN([C@@H](C)CO)C(=O)c2cc(C#CC3CCCC3)cnc2O[C@H]1CN(C)C(=O)Cc1ccccn1`, the relative growth is reported as inactive: 0.97. With `C[C@@H]1CN([C@H](C)CO)C(=O)Cc2cc(NS(=O)(=O)c3ccccc3)ccc2O[C@H]1CN(C)CC1CC1` the relative growth was inactive: 0.997. For `CCCCc1nc(Cl)c(CO)n1Cc1ccc(-c2ccccc2-c2nnn[nH]2)cc1`, the relative growth was inactive: 1.01. `Clc1ccc([C@H]2CC(C3CC3)=NN2c2ccccc2)cc1` was tested, and the relative growth was inactive: 1.04. In the case of `CO[C@H](CN(C)C(=O)Nc1ccc(C(F)(F)F)cc1)[C@@H](C)CN(Cc1ccccc1Cl)[C@@H](C)CO`, the relative growth is reported as inactive: 1.03. In the case of `C[C@@H]1CCCCO[C@@H](CN(C)Cc2ccc3c(c2)OCO3)[C@H](C)CN([C@H](C)CO)C(=O)c2cc(NC(=O)Nc3ccc(F)cc3)ccc2O1`, the relative growth is reported as inactive: 0.972. In the case of `O=C1O[C@H](c2ccccc2)[C@H](c2ccccc2)N2[C@H]1[C@@H](C(=O)N1CCCCCCC1)[C@]1(C(=O)Nc3ccc(C#CC4(O)CCCCCC4)cc31)[C@H]2c1ccccc1OCCO`, the relative growth is reported as inactive: 1.03. In the case of `C[C@H]1CN([C@@H](C)CO)C(=O)c2c(c3ccccc3n2C)-c2ccccc2CO[C@@H]1CN(C)CC1CCCCC1`, the relative growth is reported as inactive: 1.01. With `Cc1noc(C)c1NC(=O)N(C)C[C@@H]1Oc2ccc(NS(=O)(=O)c3ccccc3)cc2CC(=O)N([C@H](C)CO)C[C@H]1C` the relative growth was inactive: 0.979. With `Cc1noc(C)c1NC(=O)Nc1cccc2c1O[C@H](CN(C)Cc1ccc(Oc3ccccc3)cc1)[C@@H](C)CN([C@@H](C)CO)C2=O` the relative growth was inactive: 1.02. `C=CCNC(=O)[C@H]1CCCN(S(C)(=O)=O)C1` was tested, and the relative growth was inactive: 1.01. For `C[C@H]1CN([C@@H](C)CO)C(=O)Cc2cc(NS(=O)(=O)c3cn(C)cn3)ccc2O[C@H]1CN(C)Cc1ccc2c(c1)OCO2`, the relative growth was inactive: 0.979. In the case of `C[C@@H]1CCCCO[C@H](CN(C)C(=O)c2ccccc2)[C@@H](C)CN([C@@H](C)CO)C(=O)c2cc(NC(=O)C3CCCCC3)ccc2O1`, the relative growth is reported as inactive: 1. `C[C@@H]1CN([C@@H](C)CO)C(=O)Cc2cc(NC(=O)CCN3CCOCC3)ccc2O[C@H]1CN(C)C(=O)NC1CCCCC1` was tested, and the relative growth was inactive: 1.02. In the case of `COc1c(O)cc2oc3cc(O)c(CC=C(C)C)c(O)c3c(=O)c2c1CC=C(C)C` [alpha-MANGOSTIN], the relative growth is reported as inactive: 0.806. `Cc1ccc(S(=O)(=O)Nc2cccc3c2O[C@H](CN(C)Cc2ccc(C(F)(F)F)cc2)[C@H](C)CN([C@@H](C)CO)C3=O)cc1` was tested, and the relative growth was inactive: 1.04. For `C[C@H]1CN([C@@H](C)CO)C(=O)CCCn2cc(nn2)CO[C@H]1CN(C)S(=O)(=O)c1cccc(C#N)c1`, the relative growth was inactive: 1.02. For `CC(C)NC(=O)N(C)C[C@H]1Oc2ncc(-c3ccc(C(=O)N(C)C)cc3)cc2C(=O)N([C@H](C)CO)C[C@@H]1C`, the relative growth was inactive: 0.987. `O=C(O)c1cn(-c2ccccc2)nn1` was tested, and the relative growth was inactive: 0.815. `NC(=O)c1cc[n+](CC2=C(C(=O)[O-])N3C(=O)C(NC(=O)C(c4ccccc4)S(=O)(=O)[O-])C3SC2)cc1.[Na+]` (configuration not stated) was tested, and the relative growth was inactive: 1.08. With `C[C@@H]1CCCCO[C@H](CN(C)C(=O)c2ccccc2)[C@@H](C)CN([C@@H](C)CO)C(=O)c2cc(NC(=O)NC3CCCCC3)ccc2O1` the relative growth was inactive: 0.962. With `C[C@@H]1CCCCO[C@@H](CN(C)S(=O)(=O)c2ccccc2)[C@H](C)CN([C@H](C)CO)C(=O)c2cc(NC(=O)Nc3ccc4c(c3)OCO4)ccc2O1` the relative growth was inactive: 0.932. For `CC(C)CC#Cc1ccc2c(c1)O[C@@H](CN(C)C(=O)c1ccncc1)[C@@H](C)CN([C@@H](C)CO)S2(=O)=O`, the relative growth was inactive: 0.887. `C[C@@H]1CN([C@@H](C)CO)S(=O)(=O)c2ccc(C#C[C@@H](C)O)cc2O[C@@H]1CN(C)C(=O)C1CCCCC1` was tested, and the relative growth was inactive: 1. In the case of `COc1ccc(NC(=O)N(C)C[C@H]2Oc3ccc(NC(=O)CCN4CCOCC4)cc3C(=O)N([C@H](C)CO)C[C@@H]2C)cc1`, the relative growth is reported as inactive: 0.984. In the case of `CCCC(NC(C)C(=O)N1C(C(=O)O)CC2CCCCC21)C(=O)O` (configuration not stated), the relative growth is reported as inactive: 1.02. For `CC(C)NC(=O)N(C)C[C@@H]1OCCCC[C@@H](C)Oc2ccc(NC(=O)Nc3ccccc3)cc2C(=O)N([C@@H](C)CO)C[C@@H]1C`, the relative growth was inactive: 0.996.
